Legend:
IGF1 (IGF-I) [1] = molecular target: T1, IGF1 (IGF-I) (UniProt P05019 partial chain); assay: Direct Bind ELISA, antigen on plate; C-terminal VD; first value of IGF1/IGF2 cell
T1 construct: Bought reagent

IGF2 (IGF-2) [2] = molecular target: T2, IGF2 (IGF-2) (UniProt P01344 partial chain); assay: Direct Bind ELISA, antigen on plate; C-terminal VD; second value of IGF1/IGF2 cell
T2 construct: Bought reagent

IGF1 (IGF-I) [3] = molecular target: T1, IGF1 (IGF-I); assay: Direct Bind ELISA, antigen on plate; N-terminal VD; first value of IGF1/IGF2 cell
IGF2 (IGF-2) [4] = molecular target: T2, IGF2 (IGF-2); assay: Direct Bind ELISA, antigen on plate; N-terminal VD; second value of IGF1/IGF2 cell
IGF1R ECD [5] = molecular target: T3, IGF1R ECD (UniProt P08069 31-935, limits assumed); assay: Direct Bind ELISA, antigen on plate; C-terminal VD
T3 construct: extracellular domain; Bought reagent

IGF1R ECD [6] = molecular target: T3, IGF1R ECD; assay: Direct Bind ELISA, antigen on plate; N-terminal VD
IGF1R = molecular target: T4, IGF1R (UniProt P08069 31-1367, limits assumed); assay: flow cytometry on cells carrying the target, 2 ug/mL; C-terminal VD
T4 construct: whole, on cells; also called insulin-like growth factor receptor

B1: DVD029 (HER-2 (seq. 1) and IGF1,2 DVD-Ig) (bispecific antibody, IgG1)
VH: [omitted - about 120 residues]ASTKGPQVQLVQSGAEVKKPGASVKVSCKASGYTFTSYDINWVRQATGQGLEWMGWMNPNSGNTGYAQKFQGRVTMTRNTSISTAYMELSSLRSEDTAVYYCARDPYYYYYGMDVWGQGTTVTVSS
VL: [omitted - about 100 residues]RTVAAPQSVLTQPPSVSAAPGQKVTISCSGSSSNIENNHVSWYQQLPGTAPKLLIYDNNKRPSGIPDRFSGSKSGTSATLGITGLQTGDEADYYCETWDTSLSAGRVFGGGTKLTVLG
notes: HC vector V1 (wild-type hIgG1 constant), LC vector V5 (kappa signal peptide, lambda constant); also called DVD029L
EC50 (IGF1 (IGF-I) [1]): 229 nM | EC50 (IGF2 (IGF-2) [2]): 206 nM

B2: DVD030 (IGF1,2 and HER-2 (seq. 1) DVD-Ig) (bispecific antibody, IgG1)
VH: QVQLVQSGAEVKKPGASVKVSCKASGYTFTSYDINWVRQATGQGLEWMGWMNPNSGNTGYAQKFQGRVTMTRNTSISTAYMELSSLRSEDTAVYYCARDPYYYYYGMDVWGQGTTVTVSSASTKGP[omitted - about 120 residues]
VL: QSVLTQPPSVSAAPGQKVTISCSGSSSNIENNHVSWYQQLPGTAPKLLIYDNNKRPSGIPDRFSGSKSGTSATLGITGLQTGDEADYYCETWDTSLSAGRVFGGGTKLTVLGQPKAAP[omitted - about 100 residues]
notes: HC vector V1 (wild-type hIgG1 constant), LC vector V4 (lambda signal peptide, kappa constant); also called DVD030H; DVD030L
EC50 (IGF1 (IGF-I) [3]): 1.75 nM | EC50 (IGF2 (IGF-2) [4]): 5.49 nM

B3: DVD031 (HER-2 (seq. 1) and IGF1R DVD-Ig) (bispecific antibody, IgG1)
VH: [omitted - about 120 residues]ASTKGPEVQLLESGGGLVQPGGSLRLSCTASGFTFSSYAMNWVRQAPGKGLEWVSAISGSGGTTFYADSVKGRFTISRDNSRTTLYLQMNSLRAEDTAVYYCAKDLGWSDSYYYYYGMDVWGQGTTVTVSS
VL: [omitted - about 100 residues]RTVAAPDIQMTQFPSSLSASVGDRVTITCRASQGIRNDLGWYQQKPGKAPKRLIYAASRLHRGVPSRFSGSGSGTEFTLTISSLQPEDFATYYCLQHNSYPCSFGQGTKLEIKR
notes: HC vector V1 (wild-type hIgG1 constant), LC vector V2 (kappa constant); also called DVD031L
EC50 (IGF1R ECD [5]): 171 nM

B4: DVD032 (IGF1R and HER-2 (seq. 1) DVD-Ig) (bispecific antibody, IgG1)
VH: EVQLLESGGGLVQPGGSLRLSCTASGFTFSSYAMNWVRQAPGKGLEWVSAISGSGGTTFYADSVKGRFTISRDNSRTTLYLQMNSLRAEDTAVYYCAKDLGWSDSYYYYYGMDVWGQGTTVTVSSASTKGP[omitted - about 120 residues]
VL: DIQMTQFPSSLSASVGDRVTITCRASQGIRNDLGWYQQKPGKAPKRLIYAASRLHRGVPSRFSGSGSGTEFTLTISSLQPEDFATYYCLQHNSYPCSFGQGTKLEIKRTVAAP[omitted - about 100 residues]
notes: HC vector V1 (wild-type hIgG1 constant), LC vector V2 (kappa constant); also called DVD032H; DVD032L
EC50 (IGF1R ECD [6]): 0.16 nM

B5: DVD031 (bispecific antibody, human IgG1, kappa)
heavy: [omitted - about 120 residues]ASTKGPEVQLLESGGGLVQPGGSLRLSCTASGFTFSSYAMNWVRQAPGKGLEWVSAISGSGGTTFYADSVKGRFTISRDNSRTTLYLQMNSLRAEDTAVYYCAKDLGWSDSYYYYYGMDVWGQGTTVTVSS[omitted - human IgG1 constant region]
light: [omitted - about 100 residues]RTVAAPDIQMTQFPSSLSASVGDRVTITCRASQGIRNDLGWYQQKPGKAPKRLIYAASRLHRGVPSRFSGSGSGTEFTLTISSLQPEDFATYYCLQHNSYPCSFGQGTKLEIKRTVAAPSVFIFPPSDEQLKSGTASVVCLLNNFYPREAKVQWKVDNALQSGNSQESVTEQDSKDSTYSLSSTLTLSKADYEKHKVYACEVTHQGLSSPVTKSFNRGEC
notes: DVD-Ig; also called HER-2 and IGF1R DVD-Ig
FACS Geometric Mean C-terminal (IGF1R): 24.7

Source: patent US20100260668A1 (published 2010)
